Source: PubChem BioAssay AID1159614 (National Center for Advancing Translational Sciences (NCATS), 2016)
Hit rate of the full screen: of about 45,000 compounds, about 65 (0.1%) were called active. Calls follow the shape of the dose curve; as a rule, active = well fitted activation curve with a large enough effect; inconclusive = small, poorly fitted or top-dose-only effect; inactive = no such curve, though single readings can be large or run the other way. Some of the results follow.

Molecular target: Galactocerebrosidase (Homo sapiens) (UniProt P54803)
Test: A Novel Cell-Based Assay to Identify Small Molecules for B -Galactocerebrosidase; also: 0% is about no effect; nearly all actives have a fitted effect of over 65% in size
Details: 145M-Twi-hGALC-G270D cells, HMU-beta-Gal fluorescence, 48 h; series mostly up to 57.5 µM; activation: at the top concentration
Procedure, shortened: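 qHTS, 1536-well; 145M-Twi-hGALC-G270D cells (WT line also made) in DMEM/F12 + 10% FBS; compound incubation on live cells; HMU-β-gal 0.1 mM final, pH 5.2, NaTC; carbonate stop; fluorescence increase = enhanced residual activity.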

Sequence of UniProt P54803 (P54803 whole entry, looked up): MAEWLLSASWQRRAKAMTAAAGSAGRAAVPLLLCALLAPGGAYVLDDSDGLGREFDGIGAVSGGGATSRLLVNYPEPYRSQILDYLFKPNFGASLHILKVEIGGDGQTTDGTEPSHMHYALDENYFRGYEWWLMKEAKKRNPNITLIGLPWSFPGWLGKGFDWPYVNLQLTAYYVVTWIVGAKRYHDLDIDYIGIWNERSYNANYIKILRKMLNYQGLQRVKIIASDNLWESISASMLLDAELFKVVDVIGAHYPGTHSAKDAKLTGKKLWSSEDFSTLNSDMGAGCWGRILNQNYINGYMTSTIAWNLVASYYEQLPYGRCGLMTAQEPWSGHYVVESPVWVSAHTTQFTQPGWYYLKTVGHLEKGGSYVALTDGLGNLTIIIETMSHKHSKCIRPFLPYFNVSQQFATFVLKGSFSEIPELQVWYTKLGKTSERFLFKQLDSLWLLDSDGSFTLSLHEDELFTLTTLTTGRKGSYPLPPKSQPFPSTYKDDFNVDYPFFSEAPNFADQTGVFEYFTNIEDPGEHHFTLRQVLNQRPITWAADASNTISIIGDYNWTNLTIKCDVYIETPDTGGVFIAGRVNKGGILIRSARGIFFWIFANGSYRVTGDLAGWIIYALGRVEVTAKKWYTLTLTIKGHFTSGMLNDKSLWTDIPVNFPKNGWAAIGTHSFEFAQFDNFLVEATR

activation, inactive:
COc1ccc(OC)c(CNS(=O)(=O)c2c(C(=O)N3CCCCCC3)c(C)n(C)c2C)c1 -19.6%
O=C(Cn1nnc(-c2ccc(Cl)cc2)n1)NCc1ccc(F)cc1 11.3%
O=S(=O)(c1ccc(Br)cc1)c1nc(-c2cccs2)oc1SCc1ccccc1F -11.3%
Cc1ccc(NC(=O)c2cnc(SCC(=O)Nc3cc(C)on3)n(C)c2=O)cc1 -3.01%
COc1ccc(Cl)cc1NC(=O)CSC1=Nc2ccccc2C2=NC(CC(=O)NCc3ccc4c(c3)OCO4)C(=O)N12 (stereo not drawn) -15.2%
Cc1ccc(CNC(=O)Cn2cc(S(=O)(=O)Cc3ccccc3F)c3ccccc32)cc1 -9.34%
COc1ccccc1N1CCN(C(=O)CCNS(=O)(=O)c2ccc3c(c2)CCN3C(=O)C2CC2)CC1 -30.4%
CCC(Oc1ccc(F)cc1)C(=O)Nc1nc(-c2ccc(F)cc2)ns1 (stereo not drawn) -3.99%
CCOC(=O)c1ccc(NC(=O)CC2C(=O)N(c3cccc(OC)c3)C(=O)N2Cc2ccc(OC)cc2)cc1 (stereo not drawn) -16.6%
C=CCc1ccccc1OCC(O)CN1CCN(c2ccccc2)CC1 (stereo not drawn) -8.77%
COc1ccccc1C(=O)Nc1ccc2c(c1)nc(CN1CCCCC1)n2C -1.62%
Cc1cc(C)n2nc(SCC(=O)Nc3cccc(C(F)(F)F)c3)nc2n1 -17.3%
CCn1c(=O)n(CC)c2cc(N3CCCCC3)c(NC(=O)Nc3ccccc3C(F)(F)F)cc21 -3.07%
Cc1sc2c(c1C)c(=O)n(-c1cccc(C(F)(F)F)c1)c(=O)n2Cc1ccc(F)cc1 0.281%
Cc1ccc(-c2nc3ccc(Cl)cn3c2Nc2ccccc2C)s1 -15.8%
COC(=O)c1ccc(NC(=O)CCc2c(C)nc3c(c2C)c(=O)n(C)c(=O)n3C)cc1 0.973%
COc1ccccc1Cc1nc2ccccc2nc1SCC(=O)Nc1cccc(Cl)c1C -18%
CC(C)c1cnc2c(c1SCC(=O)NCc1ccccc1)c(=O)n(C)c(=O)n2C -15.8%
Cc1ccccc1NC(=O)CSc1nc(=O)n(CCN2CCOCC2)c2c1CCC2 -15.2%
CN(Cc1ccccc1)C(=O)CSc1nc2ccccc2n1Cc1ccccc1F -12.5%
COc1ccc(CNC(=O)c2cnc3cc(C)ccn3c2=O)cc1 1.8%
COc1cc(NC(=O)CSC2=Nc3ccccc3N=C(c3ccc(F)cc3)C2)cc(OC)c1 -10.9%
CCCOC(=O)c1ccc(N)cc1 -8.43%
CCN1CCN(CCCNC(=O)c2cc3c(s2)-c2c(C)cccc2OC3)CC1 -7.35%
O=S(=O)(c1ccc(-c2cc(C(F)(F)F)on2)s1)N1CCN(c2cccc(Cl)c2)CC1 -5.24%
CCOc1ccccc1CNC(=O)c1[nH]c2ccccc2c1Sc1ccccc1 -24.8%
CCc1nc2ccc(C(=O)NCCc3ccc(OC)c(OC)c3)cc2nc1CC -2.05%
O=C(c1ccco1)N1CCN(c2nc3ccc(Cl)cc3s2)CC1 2.72%
CCn1ccc2cc(S(=O)(=O)N3CCC(C(=O)NCCOC)CC3)ccc21 -6.99%
Cc1ccccc1OCC(=O)Nc1ccccc1C(=O)OCc1cc(=O)n2c(C)csc2n1 -5.36%
Cc1nn2c(C(F)(F)F)cc(-c3ccc(OC(C)C)cc3)nc2c1C#N -4.16%
COc1ccc(OC)c(CCNC(=O)c2ccc3[nH]c(C)c(C)c3c2)c1 29%
COc1ccc(C(CC(=O)Nc2ccc(OC)c(OC)c2)N2Cc3ccccc3C2=O)cc1 (stereo not drawn) -15.6%
COCCn1c(C)cc(O)c(C(c2ccccc2OC)N2CCCCC2)c1=O (stereo not drawn) -10.3%
COc1cccc(CNC(=O)c2cc3c(=O)n(C)c4ccccc4c3n2C)c1 -7.43%
Cc1ccc(C)c(N2CCN(C(=O)c3cccn3-c3nnc(N4CCCCC4)s3)CC2)c1 -26.8%
O=C(Nc1cccc(C2=NCCN2)c1)Nc1cccc(C2=NCCN2)c1 -19.2% [at 23.8 µM]
Cc1ccc2nc(SCc3nc(-c4ccccc4C)no3)[nH]c2c1 -36%
Cc1ccc2c(CC(=O)Nc3c(C(=O)Nc4cccc(Cl)c4)oc4ccccc34)coc2c1C -8.16%
COc1ccc2cc(CNc3ccccc3)c(=O)n(CC(=O)Nc3ccc(C)cc3C)c2c1 -10.4%
CCCCN(CC)CCNC(=O)Cn1c(=O)c2cccn2c2cccnc21 0.0423%
Cc1ccc(NC(=O)Cn2c(=O)c(C(F)(F)F)nc3ccccc32)c(C)c1 8.46%
Cc1ccccc1Cn1c(Oc2ccccc2F)nc2c1c(=O)n(C)c(=O)n2C 0.588%
Cc1ccc(Cl)cc1Nc1sc(C(=O)c2ccccc2)c(N)c1S(=O)(=O)c1ccccc1 -17%
Cc1ccc(Nc2cc(C(=O)NC3CCCC3)c3ccccc3n2)c(C)c1 -4.36%
CN(Cc1ccccc1)C(=O)Cn1ncc2c3ccccc3n(Cc3cccc(Cl)c3)c2c1=O -8.25%
COc1ccc(NC(=O)CSC2=Nc3ccccc3C3=NC(Cc4ccccc4)C(=O)N23)cc1Cl (stereo not drawn) -9.13%
COc1cc(CCC(=O)NCc2ccc3c(c2)CCN3C(=O)c2cccc(C)c2)cc(OC)c1OC -4.58%
COc1cc(C2c3c(oc4ccccc4c3=O)C(=O)N2Cc2ccccc2Cl)ccc1O (stereo not drawn) -22.6%
CCc1cnc2c(c1SCC(=O)NCc1ccccc1)c(=O)n(C)c(=O)n2C -16.1%
Cc1cc(C)c2oc(-c3cccc(NC(=O)c4cc5ccccc5o4)c3)nc2c1 -7.94%
CC(C)(C)c1ccc(C(=O)N2CC(=O)Nc3ccc(F)cc3C2c2ccc(F)cc2)cc1 (stereo not drawn) -11.4%
COc1ccc(C2=NN(CC(=O)NCc3ccccc3Cl)C(=O)CC2)cc1 -7.51%
CCOc1ccc(C(=O)Nc2ccc(-c3nc4cc(C(C)C)ccc4o3)cc2)cc1Cl -11.5%
CCc1cccc(NC(=O)c2nc(-c3ccncc3)no2)c1 2.73%
Cc1ccc(NCc2cccn2-c2nnc(N3CCC(C(=O)NCCc4ccccc4)CC3)s2)cc1 -22.3%
COc1cccc(CNC(=O)N2CCC(CN3CCC(C)CC3)CC2)c1 -7.07%
Fc1cccc(NCc2cccn2-c2nnc(N3CCOCC3)s2)c1 -21.4%
Cc1ccc(CCNC(=O)c2c(C)oc3ncnc(N4CCOCC4)c23)cc1 -10.7%
CCOc1ccccc1NC(=O)CN(CCc1ccccc1)S(=O)(=O)c1ccc(C)cc1 -4.07%
Cn1nnc2c(N3CCCCC3)ncnc21 -14.4%
COCCc1nn2c(=O)cc(COC(=O)c3cccs3)nc2s1 -20.5%
Clc1ccc(CNc2nc3ccccc3c3nc(-c4cccnc4)nn23)cc1 13.9%
CCn1ccc2cc(S(=O)(=O)N3CCC(C(=O)NCCc4ccc(SC)cc4)CC3)ccc21 -6.54%
CCc1cccc(C)c1NC(=O)CN1C(=O)c2c(c3ccccc3n2C)C1c1ccc(OC)cc1 (stereo not drawn) -5.23%
COc1ccc(NC(=O)CSc2nc(-c3ccc(OC)cc3)[nH]c2-c2ccc(F)cc2)cc1 2.17%
COc1ccccc1NC(=O)c1ccccc1NC(=O)c1ccccc1 -7.06%
CN(C)c1ccc(CNC(=O)CCC(=O)N2Cc3ccccc3Oc3ncccc32)cc1 6.17%
COc1ccc(-c2c3c(nc4sc(C(=O)Nc5ccc(Cl)cc5)c(N)c24)CC(C)(C)CC3=O)cc1 -13.4%
Cc1ccc(CN(C(=O)COc2ccc(C(C)(C)C)cc2)C2CCS(=O)(=O)C2)o1 (stereo not drawn) -12.7%
COCCCNC(=O)Nc1cc(C(=O)NCc2ccc(OC)cc2)ccc1N1CCCC1 -14.4%
CCc1ccccc1NC(=O)C(NS(=O)(=O)c1ccc2c(c1)CCC(=O)N2)c1ccccc1 (stereo not drawn) -14.3%
CCCCN(C)C(=O)CN1C(=O)CCn2nc(-c3cn(C)c4ccccc34)cc21 -4.06%
COc1cccc(CCNC(=O)c2c(O)nc3cc(C)ccn3c2=O)c1 -9.58%
COc1ccc(-c2nc(CCNC(=O)c3cccs3)cs2)cc1OC -16.3%
O=C(O)Cn1nc(N2CCN(c3ccc(F)cc3)CC2)ccc1=O -13%
O=c1cc(-c2ccccc2)n2c(SCc3ccc([N+](=O)[O-])cc3)nnc2[nH]1 -12%
COC(=O)c1ccccc1NC(=O)c1ccc2c(c1)CCN2S(=O)(=O)c1ccc(C)cc1 -9.73%
CC1=C(C(N)=O)C(c2cccc(F)c2)n2nc(SCc3ccccc3)nc2N1 (stereo not drawn) -11.3%
COc1ccc2cc(CNc3ccc(C)cc3)c(=O)n(CC(=O)Nc3ccc(OC)c(Cl)c3)c2c1 -1.43%
CCCCc1ccc(C(=O)Nc2ccc3nc(N(CC)CC)cc(C)c3c2)cc1 -4.28%
O=C(CCCn1c(=O)c2sccc2n(Cc2ccc(F)cc2Cl)c1=O)NCc1ccc2c(c1)OCO2 -10.7%
COc1ccccc1CNC(=O)c1cc(Sc2cccc(Cl)c2)nc2ccccc12 -16.3%
COc1cc(OC)c(NC(=O)C2=C(C)C(=O)OC23CCCCC3)cc1Cl -6.45%
CCc1ccc(C(=O)c2cnc3ccc(C)cc3c2S(=O)(=O)c2ccc(OC)cc2)cc1 -13.9%
O=C(CCc1nc2cccnc2n1Cc1ccccc1)NCc1cccc(Cl)c1 -3.44%
Cc1ccccc1Nc1ncnc2c1c(-c1ccccc1)cn2-c1ccc(F)cc1 -4.12%
O=C(Nc1cccc(Cl)c1)c1ccc2nc(Cc3ccccc3)oc2c1 -26.2%
OCc1cnc(SCc2cccc(F)c2)n1Cc1ccc(F)cc1 -10.5%
Cc1c(C(=O)N2CCCC2)oc2c1-c1nn(CC(=O)NCc3cccc(F)c3)cc1CC2 5.71%
Cc1ccc2c(c1)N(C(=O)N1CCC(C(=O)NCCC3=CCCCC3)CC1)CC(C)O2 (stereo not drawn) -16.6%
COC(=O)NNC(=O)C1CCC(C)CC1 (stereo not drawn) -3.51%
CN1c2ccc(Cl)cc2-c2nc(SCC(=O)Nc3cc(F)ccc3F)ncc2S1(=O)=O -12%
Cc1cccc(N2C(=O)CS(=O)(=O)C23C(=O)N(C)c2ccccc23)c1 (stereo not drawn) -21.4%
CCCCn1c(CNC(=O)C23CC4CC(CC(C4)C2)C3)nnc1SCC(=O)Nc1ccccc1 -37.6%
CCN(CC)CCCNC(=O)CCc1c(C)n(CC)c2cc(-c3ccccc3OC)nn2c1=O -11.7%
Cc1ncc(COC(=O)C(C)C)c2cc(C(=O)Nc3ccccc3C(F)(F)F)c(=O)oc12 -9.74%

Potency, inactive:
NC(=Nc1ccccc1)Nc1ccccc1
